The whole screen tested about 310,000 compounds, of which about 14,000 (4.5%) showed an effect of 50% or more. Effects have a minus sign here. The list shows a part of the results.
Target: human ether-à-go-go-related gene (hERG) potassium channel (human, UniProt Q12809)
Test: primary screen, population patch clamp on CHO cells stably expressing hERG
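Further: peak tail current of the secondary pulse compared with the same well before compound.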

Chain of human ether-à-go-go-related gene (hERG) potassium channel (Q12809 whole entry, looked up): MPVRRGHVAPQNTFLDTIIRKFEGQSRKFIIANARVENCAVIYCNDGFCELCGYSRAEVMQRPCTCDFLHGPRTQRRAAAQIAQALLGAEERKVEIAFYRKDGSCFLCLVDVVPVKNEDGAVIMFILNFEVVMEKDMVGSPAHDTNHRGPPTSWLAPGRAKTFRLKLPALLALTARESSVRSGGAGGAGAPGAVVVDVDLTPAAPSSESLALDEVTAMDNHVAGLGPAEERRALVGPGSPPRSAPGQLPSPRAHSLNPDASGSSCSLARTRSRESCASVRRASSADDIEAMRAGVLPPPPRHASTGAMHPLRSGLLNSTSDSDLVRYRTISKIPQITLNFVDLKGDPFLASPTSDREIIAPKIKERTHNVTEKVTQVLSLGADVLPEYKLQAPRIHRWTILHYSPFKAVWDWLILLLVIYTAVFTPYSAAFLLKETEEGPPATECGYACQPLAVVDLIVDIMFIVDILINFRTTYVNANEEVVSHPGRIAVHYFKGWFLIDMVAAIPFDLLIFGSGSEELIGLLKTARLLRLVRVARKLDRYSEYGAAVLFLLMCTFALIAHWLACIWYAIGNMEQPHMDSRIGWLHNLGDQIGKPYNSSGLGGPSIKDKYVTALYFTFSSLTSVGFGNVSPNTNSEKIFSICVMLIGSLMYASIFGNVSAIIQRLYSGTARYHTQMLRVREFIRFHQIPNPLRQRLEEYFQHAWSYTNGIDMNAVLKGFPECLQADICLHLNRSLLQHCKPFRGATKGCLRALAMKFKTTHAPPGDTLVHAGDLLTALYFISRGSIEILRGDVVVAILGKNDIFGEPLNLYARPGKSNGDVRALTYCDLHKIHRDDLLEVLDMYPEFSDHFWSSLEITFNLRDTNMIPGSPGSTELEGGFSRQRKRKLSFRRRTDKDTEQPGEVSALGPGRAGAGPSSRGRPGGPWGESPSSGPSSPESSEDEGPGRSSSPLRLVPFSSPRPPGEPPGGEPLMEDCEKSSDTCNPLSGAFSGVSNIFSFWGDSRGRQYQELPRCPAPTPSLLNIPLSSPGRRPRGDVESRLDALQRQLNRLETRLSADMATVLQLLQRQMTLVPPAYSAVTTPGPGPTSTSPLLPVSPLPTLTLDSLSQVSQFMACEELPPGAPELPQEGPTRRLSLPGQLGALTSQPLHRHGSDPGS

Point of comparison: COc1ccc(NC(=O)CN(C)C2CCCCC2)c([N+](=O)[O-])c1, “hERG current change (%, negative = inhibition) at 10uM” value -8.84%. Against it:
- Cc1onc(-c2c(Cl)cccc2Cl)c1C(=O)OCC(=O)c1ccccc1 — lower, -12.9%
- COc1ccc(/C=C2/CCCC(C(=O)C(F)(F)F)=C2O)cc1OC — lower, -8.9%
- COc1ccc(CN2CCCC2C(=O)Nc2ccc(OC)c(OC)c2)cc1OC (stereo not shown) — higher, 9.17%
- Clc1ccc(-c2csc(N/N=C\c3cccnc3)n2)cc1 — higher, 6.05%
- CCC(c1nnc(SCC(=O)Nc2ccc(NC(C)=O)cc2)n1Cc1ccccc1)N(C)C (stereo not shown) — lower, -18.7%
- COc1ccc(-n2c(SCC(N)=O)nc3sc4c(c3c2=O)CCC4)cc1 — lower, -16.9%
- Cc1cc(C)n2nc(SCc3cccc(S(=O)(=O)N(C)C)c3)nc2n1 — higher, 10.2%
- C=CCOc1c(Cl)cc(CNCCCN2CCOCC2)cc1OC.Cl — lower, -17.2%
- CCN(c1ccccc1)c1nc2ccsc2c(=O)s1 — higher, -0.901%
- CN(C)c1ccc(C2N3CC4(C)CN2CC(C)(C3)C4O)cc1 (stereo not shown) — higher, 7.92%
- Cc1ccccc1NC(=O)c1ccc2c(c1)C(=O)N(CCC(C)C)C2=O — higher, -2.26%
- O=C1CC(/C=C/c2ccccc2)(C(=O)NC2CCCC2)N1c1ccc(S(=O)(=O)N2CCCC2)cc1 (stereo not shown) — higher, -2.15%
- COC(=O)Nc1cc(C(F)(F)F)ccc1N1CCN(c2ccccc2)CC1 — higher, 13.4%
- COc1ccc(/C=C/C(=O)N2CCN(c3ccccn3)CC2)cc1 — lower, -40.7%
- Cc1cc(C(=O)O)ccc1NCc1cccnc1 — higher, 20.1%
- O=C(Nc1ccc(N2CCOCC2)cc1N1CCOCC1)c1ccc([N+](=O)[O-])cc1Cl — higher, -3.5%
- COc1cc(OC)cc(C(=O)Nc2cccc3nc(C)ccc23)c1 — higher, 10.5%
- CN(CC1CCCO1)S(=O)(=O)c1ccc(C(=O)Nc2ccc(S(N)(=O)=O)cc2)cc1 (stereo not shown) — higher, 8.73%
- O=c1c(Br)c(NCc2ccccc2)cnn1-c1ccc(F)cc1 — higher, -4.27%
- COc1ccc(N2C(=O)/C(=C\c3ccco3)N=C2SCC(=O)NC(C)(C)C)cc1Cl — higher, 0.0159%
- Cl.N=c1ccn(Cc2ccc(Cl)c(Cl)c2)cc1 — higher, 2.55%
- O=c1cc(CN2CCN(S(=O)(=O)c3ccc4c(c3)OCCO4)CC2)c2ccc(O)cc2o1 — higher, -4.32%
- Cc1nc(Nc2ccc(C(=O)O)cc2)nc(Nc2ccc(C(=O)O)cc2)c1[N+](=O)[O-] — higher, 15.3%
- Cc1cccc(NCc2ccc([N+](=O)[O-])s2)c1 — lower, -26.7%
- COc1ccc(NC(=S)N2CCCCC2c2cccnc2)cc1 (stereo not shown) — higher, 5.47%
- Cc1nc(NS(=O)(=O)c2ccccc2)sc1NC(=O)OCCN(C)C — higher, 15%
- CCOc1ccc(NC(=O)C2CCCN(S(=O)(=O)c3c(C)nn(C)c3C)C2)cc1 (stereo not shown) — lower, -16.2%
- COc1cccc(OCC(O)CN2CCN(c3ncccn3)CC2)c1.Cl (stereo not shown) — lower, -11%
- Cc1cc(C(=O)NNS(=O)(=O)c2ccccc2C(F)(F)F)nn1C(C)(C)C — higher, 0.33%
- CCCOc1ccc(-c2nn(-c3ccccc3)cc2/C=C2\SC(N)=NC2=O)cc1 — higher, 2.92%
- O=C(c1ccc(Cl)nc1)N1CCN(S(=O)(=O)c2ccc3c(c2)OCCO3)CC1 — lower, -28.8%
- Cc1ncc([N+](=O)[O-])n1Cc1cccc2ccccc12 — lower, -11.5%
- CC1(C)Cc2c(sc(NC(=O)C(=O)N3CCCCC3)c2C(=O)O)CO1 — higher, 12.8%
- Cn1c(C(=O)O)c(CC(=O)NCc2cccnc2)c2ccccc21 — higher, -5.43%
- COc1ccc2c(C)cc(SCC#N)nc2c1 — higher, 1.35%
- O=C(CN1N=C(c2ccccc2)CCC1=O)NCc1ccccc1 — higher, -6.78%
- COc1ccc(CC(C)Nc2cccc(F)c2)cc1 (stereo not shown) — higher, 17%
- C=CCc1c(C)nc(-c2ccccc2)nc1Nc1ccccc1O — higher, 5.18%
- O=C(NC(=O)c1ccccc1O)c1ccc(C(F)(F)F)cc1 — higher, 19.6%
- CCOC(=O)c1c(NC(=O)c2ccccc2)sc2c(O)c(CN(CC)CC)ccc12.Cl — higher, -2.84%
- NC(=O)CCC(C(=O)O)N1C(=O)c2ccc(O)cc2C1=O (stereo not shown) — higher, 23.4%
- CN1C(=O)/C(=C/c2ccc(C(F)(F)F)cc2)Sc2ccc(C(=O)N3CCN(c4ccccn4)CC3)cc21 — higher, 5.11%
- COC(=O)C(=C/C(C)=C/c1cccs1)C(=O)OC — lower, -13.7%
- C=CCn1c(SCc2ccccc2)nc2c1c(=O)[nH]c(=O)n2C — lower, -21.6%
- CC1(C)CC(=O)C=C(N2CCNCC2)C1 — higher, 14.9%
- CCOc1ccc(N(CC(=O)NCc2cccc(OC)c2)S(=O)(=O)c2c(C)noc2C)cc1 — higher, 2.94%
- CC(C)(CNC(=O)c1ccc(Cl)c(S(=O)(=O)N2CCc3ccccc3C2)c1)N1CCOCC1 — lower, -50.3%
- CCN1C(=O)c2ccccc2S(=O)c2ccc(C(=O)NCCN(CC(C)C)CC(C)C)cc21 (stereo not shown) — higher, -4.59%
- CCOC(=O)c1ccccc1NC(=O)c1cccnc1 — lower, -17.2%
- CCN(CC)S(=O)(=O)c1ccc(NC=C(C#N)C#N)cc1 — lower, -9.81%
- Cc1cccc(NC(=O)c2cn(-c3ccccc3)nc2-c2ccccc2)c1 — higher, 7.8%
- O=C(NCc1ccc2c(c1)OCO2)c1ccc(S(=O)(=O)C(F)F)cc1 — lower, -47.8%
- Cc1ccc(NS(=O)(=O)c2ccc(OCC(N)=O)cc2)cc1 — higher, 7.32%
- CC(=O)N1CCc2cc(S(=O)(=O)CCC(=O)NCc3cccs3)ccc21 — higher, 3.98%
- COC(=O)Cc1[nH]nc2c1C1(CCSCC1)C(C#N)=C(N)O2 — higher, -0.931%
- CC(C)OC(=O)c1ccc(Cn2nnc3ccccc3c2=O)cc1 — higher, -5.23%
- COc1cc2c(cc1OC)CN(C(=O)COc1ccccc1[N+](=O)[O-])CC2 — higher, 0.631%
- O=C(CNC(=O)OCc1ccccc1)Nc1ccc(Br)cc1C(=O)c1ccccc1 — lower, -15.1%
- COc1cc(C(=O)Nc2cccc(-n3cnnn3)c2)cc(OC)c1OC — higher, 0.747%
- Cn1c(-c2ccc(F)c(F)c2)cc2onc(-c3ccccc3)c2c1=O — lower, -21.7%
- CC(CCc1ccccc1)NC(=O)Cc1ccccc1 (stereo not shown) — higher, 2.65%
- Cc1cccc(NC(=O)Nc2cnccn2)c1 — higher, 7.09%
- Cn1c(=O)c(C(=O)N2CCc3ccccc32)cc2cccnc21 — higher, -6.73%
- C=CCc1c(C)nc(-c2ccccc2)nc1N/N=C(\C)c1ccc(N)cc1 — higher, -0.357%
- O=C(NCCN1CCN(C(=O)c2cccc([N+](=O)[O-])c2)CC1)C(=O)NCc1ccc(Cl)cc1 — lower, -50.1%
- Cc1ccc(C(=O)c2ccccc2C(=O)OCC(=O)NCCc2ccccc2)cc1 — lower, -52.5%
- O=C(CSc1nnc(CNC(=O)c2c(F)cccc2F)o1)c1ccccc1 — lower, -17.7%
- CC(C)CCNC(=O)c1onc(CSc2ccccc2)c1C(=O)NCCC(C)C — higher, 12.5%
- CCC(C)(C)NC(=O)CN(Cc1ccccc1)C(=O)CCC(=O)Nc1nccs1 — higher, -4.19%
- C=CCOc1c(Br)cc(C2NC(=O)NC(C)=C2C(C)=O)cc1OCC (stereo not shown) — higher, 13.4%
- Cn1nc(-c2ccccc2)c(C(=O)Nc2ccc(C(F)(F)F)cc2)c1Cl — higher, -4.85%
- Cc1ccc(-c2noc(CCC(=O)N3CCCC3)n2)cc1 — higher, -1.57%
- Cc1ccc(Oc2ccc(OCC(=O)OC3CCS(=O)(=O)C3)cc2)cc1 (stereo not shown) — higher, 7.68%
- Cn1c(=O)c(C(=O)Nc2ncccn2)c(O)c2ccccc21 — higher, 14.4%
- CCc1ccc(OCC(=O)O/N=C(\N)c2ccncc2)c(Br)c1 — higher, 10.2%
- Cl.O=C(OCCN1CCCCC1)c1ccccc1Cl — higher, -4.37%
- CCCCOc1ccc(CCN)cc1Cl.Cl — lower, -13.7%
- CCc1ccc(C(=O)Nc2ccc(OC)c(S(=O)(=O)N3CCCCC3)c2)cc1 — lower, -22.3%
- O=C(NNC(=S)NCc1ccccc1)c1ccc(OC(F)F)cc1 — higher, -4.93%
- COc1cc(/C=N/NC(=O)CNC(=O)c2ccccc2)ccc1OC(=O)c1cccs1 — lower, -16%
- CNC(=O)COC(=O)c1ccc([N+](=O)[O-])cc1Cl — higher, 14.7%
- Cc1cc(C)[n+](C2C3CC4CC(C3)CC2C4)o1.[O-][Cl+3]([O-])([O-])[O-] (stereo not shown) — higher, 14.7%
- CCCCC12CNCC(C)(CNC1)C2=O — higher, 1.19%
- O=C(O)c1ccc(-c2noc(-c3ccccc3C(F)(F)F)n2)cc1 — higher, 14.6%
- CCc1ccc(C(C(=O)NC2CCCC2)N(Cc2cccnc2)C(=O)c2csnn2)cc1 (stereo not shown) — lower, -15%
- S=C(NCc1ccco1)N/N=C/c1ccncc1 — lower, -13.6%
- CCOc1ccc(CCNC(=O)/C=C/c2ccco2)cc1OCC — lower, -70%

— article PMC4336329 (PLoS ONE, 2015)
